Source: patent US20250326857A1 (KISOJI BIOTECHNOLOGY, published 2025)

Columns and labels:
[1] = biological target: T1, CD36 on CD36 positive OCI-AML3 cells (UniProt P16671 2-472); assay: flow cytometry on OCI-AML3 cells (CD36+), anti-human Fc-APC, MFI; OCI-AML4 cells (CD36-) as negative cell line; antibody concentration not given
T1 construct: whole, on cells; Endogenous CD36 on a CD36-positive cell line, measured by flow cytometry; also called OCI-AML3 cells (CD36+)
Procedure: Cells were harvested and first blocked with Fc block (Biolegend, Cat No. 422302) on ice for 10 mins. The cells were then incubated with test molecules on ice for 30 mins. To detect the binding of test molecules, cells were washed once and further incubated with anti-human Fc-APC (Biolegend, Cat No. 410712) for 30 minutes incubation on ice. At the end of incubation, cells were washed and resuspended in FACS buffer with 1:100 7-AAD (BD Bioscience, Cat No. 559925) added. Data was acquired on BD Canto II flow cytometry machine. Raw data was collected as Mean Fluorescence Intensity (MFI). Data was plotted and represented as Mean of two replicates ±SD.

[2] = biological target: T2, recombinant human CD36 protein (SinoBiological, Cat No. 10752-H08H) (human, UniProt P16671 30-439); assay: ELISA: plate coated with 1 µg/ml recombinant CD36, test molecule at 10 µg/ml, anti-human IgG Fc-HRP, chemiluminescence (RLU)
T2 construct: Bought protein coated on the ELISA plate; also called recombinant CD36
Procedure: ELISA Binding Assay The 96-well plates were coated with 1 μg/ml recombinant CD36 (SinoBiological, Cat No. 10752-H08H) protein and incubated at 4° C. overnight. The next day, plate was washed three times and blocked with blocking buffer for 1 hour at 37° C. At the end of the incubation, test molecules were diluted to 10 μg/ml, and distributed into corresponding wells for incubation at 37° C. After 1 hour of incubation, wells were washed for three times. Anti-human IgG Fc-HRP 2nd Ab (Sigma-Aldrich, AP113P) was diluted in 1:5000 dilution and distributed into corresponding wells for 1 hour incubation at 37° C. At the end of the incubation, the wells were washed 3 times, then 100 ul SuperSignal ELISA Pico Chemiluminescent Substrate (ThermoFisher, Cat No. 37069) was added into the wells to detect signals. Plates were read on a plate reader after the addition of the chemiluminescent substrate. Raw Data was collected as Chemiluminescence value for each well (RLUs). Data was plotted and represented as Mean of two replicates ±SD.

Binder | binding result [1] | binding result [2]
KF038 (Fc fusion, may comprise a His-tag or not) VHH-hinge-CH2-CH3 chain: QVQLQESGGGLVQAGGSLRLSCAASGDTICTSAMAWYRQAPGKERELVAGISSGGTVYYADSVKGRFTISRDNAKNTVYLQMNTLKPEDTAVYYCNAGPEVHDDVFRLCGPTTDYWGQGTQVTVSS[left out - human IgG1 Fc] | binds | binds
KF026 (Fc fusion, may comprise a His-tag or not) VHH-hinge-CH2-CH3 chain: QVQLQESGGGLVQPGGSLRLSCAASGLAFSTYAMSWYRQAPGKERELVALITSAGGTTDYADSVKGRFTISRDDAEKTVSLQMNSLKPEDTAVYYCSAWRATLFKPYWGQGTQVTVSS[left out - human IgG1 Fc] | binds | binds
KF034 (Fc fusion, may comprise a His-tag or not) VHH-hinge-CH2-CH3 chain: QVQLQESGGGLVQPGGSLRLSCAASGFSFSTYAMSWYRQPPGKERELVALITTTGGTTDYADSVKGRFTISRDDAEKTVSLQMNSLKPEDTAVYYCSAWRATLLKPYWGQGTQVTVSS[left out - human IgG1 Fc] | binds | binds
KF037 (Fc fusion, may comprise a His-tag or not) VHH-hinge-CH2-CH3 chain: QVQLQESGGGLAQPGGSLRLSCAASGFTVSTYAMSWYRQAPGKERELVALITSAGGITDYADSVKGRFTIARDDAEKTVSLQMNSLKPEDTAVYYCSAWRATLFKPYWGQGTQVTVSS[left out - human IgG1 Fc] | binds | binds
KF023 (Fc fusion, may comprise a His-tag or not) VHH-hinge-CH2-CH3 chain: QVQLQESGGGLVQPGGSLRLSCAASGFTFSSYAMSWYRQAPGKERELVALITSAGGTTDYADSVKGRFTISRDDAEKTVSLQMNSLKPEDTAVYYCSAWRASLYEPYWGQGTQVTVSS[left out - human IgG1 Fc] | binds | binds
KF040 (Fc fusion, may comprise a His-tag or not) VHH-hinge-CH2-CH3 chain: QVQLQESGGGLVQAGGSLRLSCAASGRTFSSYAMGWFRQAPGKEREFVAAISWSGGRTYYDDPVKGRFTISRDNAKNTVYLQMNSLKPEDTAVYYCNLDPEYSGTWNPWAGSGYWGQGTQVTVSS[left out - human IgG1 Fc] | binds | binds
KF035 (Fc fusion, may comprise a His-tag or not) VHH-hinge-CH2-CH3 chain: QVQLQESGGGLVQPGGSLRLSCAASGRTFSSYPMGWFRQAPGKEREFVAAIDWSGDITYYADSVKGRFAISRDNAKNMVYLQMNSLKPEDTAVYYCNAGPLDSWERNDFPSWGQGTQVTVSS[left out - human IgG1 Fc] | binds | binds
KF024 (Fc fusion, may comprise a His-tag or not) VHH-hinge-CH2-CH3 chain: QVQLQESGGGLVQPGGSLRLSCAASGFTFSNYAMSWYRQTPGKERELVAAMQSTGGTTYYADSVKGRFTISRDDAKNTVYLQMNSLKPEDTAVYYCNAVTLQGWSEYDYWGQGTQVTVSS[left out - human IgG1 Fc] | binds | binds
KF030 (Fc fusion, may comprise a His-tag or not) VHH-hinge-CH2-CH3 chain: QVQLQESGGGLVQPGGSLRLSCAASGFRFSSSIMSWYRQAPEKERELVASISSDSVRTNYAESVKGRFTISRDNEQSTLFLEMNNLKPVDTAVYFCTRPSIRGRDWGQGTQVTVSS[left out - human IgG1 Fc] |  | binds

Next, values leading:

binding result [1] | binding result [2] | Binder
binds | binds | KF025 (Fc fusion, may comprise a His-tag or not) VHH-hinge-CH2-CH3 chain: QVQLQESGGGLVQPGGSLRLSCTASGFTFSSYAMSWYRQAPGKERELVAAIPHDGGSIYYVDSVKGRFSISRDNAKNTVYLQMNSLKPEDTAVYYCNAVTLQGWREYDYWGQGTQVTVSS[left out - human IgG1 Fc]
binds | binds | KF036 (Fc fusion, may comprise a His-tag or not) VHH-hinge-CH2-CH3 chain: QVQLQESGGGLVQPGGSLRLSCAASGRTFSSYPMGWFRQAPGKEREFVAAIDWSGDITYYADSVKGRFAISRDNAKNMVYLQMNSLKPEDTAVYYCNAGPLDSWERNDFPSWDQGTQVTVSS[left out - human IgG1 Fc]
binds | binds | KF029 (Fc fusion, may comprise a His-tag or not) VHH-hinge-CH2-CH3 chain: QVQLQESGGGLVQPGESLRLSCAASGFTFSNYAMSWYRQTPGKERELVAAMQSTGGTTYYADSVKGRFTISRDDAKNTVYLQMNSLKPEDTAVYYCNAVTLQGWSEYDYWGQGTQVTVSS[left out - human IgG1 Fc]
binds | binds | KF027 (Fc fusion, may comprise a His-tag or not) VHH-hinge-CH2-CH3 chain: QVQLQESGGGLVQPGGSLRLSCAASGFTSGFTFSSYAMSWYRQAPGKERELVAAITNAGDSTHYADSVKGRFTISRDNAKNTVYLLMNSLKPEDTAAYYCNAVTLQGWSEYDYWGQGTQVTVSS[left out - human IgG1 Fc]
no binding | binds | KF028 (Fc fusion, may comprise a His-tag or not; no bar is labelled KC028 on the sheet, and the only antibody bar at the control's level is labelled KF028) VHH-hinge-CH2-CH3 chain: QVQLQESGGGLVQPGGSLRLSCAASGFSLDYFAIGWFRQAPGKEREGISCISSSGSNTYYADSVKGRFTISRDNAKNTVYLQMNSLKPEDTAVYYCAAHDYCSRAPYDYWGQGTQVTVSS[left out - human IgG1 Fc]
binds | binds | KF033 (Fc fusion, may comprise a His-tag or not) VHH-hinge-CH2-CH3 chain: QVQLQESGGGLVQLGGSLRLSCAASGFTFSNYYMSWYRQAPGKERELVGGINMTGGSADYVDSVKGRFTISRDNTKNTVYLQMNSLRVEDTAVYYCHTFSVWPPNNYWGQGTQVTVSS[left out - human IgG1 Fc]
 | binds | KF032 (Fc fusion, may comprise a His-tag or not) VHH-hinge-CH2-CH3 chain: QVQLQESGGGLVQPGGSLRLSCAASGFRFSTSIMTWYRQAPGKERELVASISSDSRRTNYAESVKGRFTISRDNEQRMVFLEMNSLKPVDTAVYFCTRPNIRGRDWGQGTQVTVSS[left out - human IgG1 Fc]
binds | binds | KF039 (Fc fusion, may comprise a His-tag or not) VHH-hinge-CH2-CH3 chain: QVQLQESGGGLVQPGGSLRLSCAASGFTLDYYAIGWFRQAPGKEREGIVYISNSDGNTYYADSVKGRFTISRDNAKNTVYLQMNSLKPEDTAVYYCAADQGSSVMHGFIEEWYDYWGQGTQVTVSS[left out - human IgG1 Fc]
